# The other results are listed elsewhere or left out.
# T1: UNK ZnF1-6 (called full-length) (human, UniProt Q9C0B0 30-357)
# T1 sequence: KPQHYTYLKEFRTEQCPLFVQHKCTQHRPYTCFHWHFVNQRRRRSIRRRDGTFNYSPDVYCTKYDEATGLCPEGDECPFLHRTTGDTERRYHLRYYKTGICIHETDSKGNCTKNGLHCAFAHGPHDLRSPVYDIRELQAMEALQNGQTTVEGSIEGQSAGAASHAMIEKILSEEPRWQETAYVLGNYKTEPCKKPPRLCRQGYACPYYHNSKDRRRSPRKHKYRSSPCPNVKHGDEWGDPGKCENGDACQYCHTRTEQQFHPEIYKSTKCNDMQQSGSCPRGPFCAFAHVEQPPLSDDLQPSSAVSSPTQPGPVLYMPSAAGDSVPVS
# B1: chr14:101901747:101901860:+|CDS|ENSG00000078304|unk|FALSE|unique (ssRNA)
# RNA: GGGAGUUCUACAGUCCGACGAUCCUGGCCAAAGACUCACAGUCCAAAAGAAGUAAUGUUCUUAAACGAAUUAGAAGAGAUUUUAGAUGUCAUUGAACCAUCAGAAUUUGUGAAGAUCAUGGAACCCCUCUUCCGGCAGUUGGCCAACAGAGGAUUGAGCAUCA
# B2: ENSG00000124766:be:win_2851|3pUTR|ENSG00000124766|bound_else_gene|NA|bound_elsewhere_windowed (ssRNA)
# RNA: GGGAGUUCUACAGUCCGACGAUCUAAUCAGAUGCCAUUUUAUAUGUGGACGUAUUUAUACUGGCCAAACAUAUUUUUUCUUUUGUCCCUUUUUUUCUUUCCUUUCUUUUUACUUCCUUUAUUUCUUUAUUCCUUCCUUUUCCUCAACAGAGGAUUGAGCAUCA
# B3: chr11:101890673:101891278:-|three_prime_utr|ENSG00000187151|control|control|control (ssRNA)
# RNA: GGGAGUUCUACAGUCCGACGAUCGUAAUGCAAGUUCUACAAUGAUAAUAUAUUAAAGAUUUUUAAAAGUUUAUCUUUUCACUUAGUGUUUCAAACAUAUUAGGCAAAAUUUAACUGUAGAUGGCAUUUAGAUGUUAUGAGUUUCAACAGAGGAUUGAGCAUCA
# B4: chr1:93346344:93346492:+|5pUTR|ENSG00000117505|unk|FALSE|unique (ssRNA)
# RNA: GGGAGUUCUACAGUCCGACGAUCGCCGCUCAAAUUUCCGGACCACCGCGCUUUCCCCUCCUCAGCCUGGGCUGUGCUCUCUCUAGAAUCCUCGGGCCCCCACUUUCUUCCCAAACUCAUCCUAAAUCUCUCACACACGCGAGUCAACAGAGGAUUGAGCAUCA
# B5: chr13:45969211:45969312:-|CDS|ENSG00000123200|unk|FALSE|unique (ssRNA)
# RNA: GGGAGUUCUACAGUCCGACGAUCGUCCCUGACCGUACAGAGGUGACAGAAGCAGAGCAUACUGCCACCGCCACGACUCCUGGUAGUACCCCUUCUCCUCUAUCUUCUCUUCUUCCUCCUCCACCGCCUGUGGCUACUGCCACUCAACAGAGGAUUGAGCAUCA
# B6: chr5:72990507:72990614:+|CDS|ENSG00000157107|unk|FALSE|unique (ssRNA)
# RNA: GGGAGUUCUACAGUCCGACGAUCGUAUGGGAUGUAUUCAAAACAUCUACAGAGAAAUUAGCAAAUUGUCACUUGGAUCUUGUUAGAAAAUUACAAGAAUUAAUAAAGGAAGUUCAGAAGUAUGGAGAAGAACAAGUAAAGUCUCAACAGAGGAUUGAGCAUCA
# B7: chr3:122573770:122573871:+|3pUTR|ENSG00000163840|msi1|total|mutant (ssRNA)
# RNA: GGGAGUUCUACAGUCCGACGAUCUAUUGGGUGCACUUGCCCUGCCACAGUAAUGCUAUAUAUUUCUGAGCAUUGUUUUUCUCCCGAUAAUUUUAUAUUUUUGAGUAUACCCCACUUCCAAGUGUUUUUUGUUUUGUUUUGCUUCAACAGAGGAUUGAGCAUCA
# B8: chr3:23980279:23980388:+|3pUTR|ENSG00000174738|unk|total|mutant (ssRNA)
# RNA: GGGAGUUCUACAGUCCGACGAUCUUUUUCUUUUCCAAUAUAAAGUUUGCUGAAUGUACAAGAAGAGUUUAUCACUCCGGAUACCGAAUUUUUUCCGGGGUUGGGGGAGGGGAUCUGUCCGGAAACUGUUACCUAUAAACAAAGCAACAGAGGAUUGAGCAUCA
# B9: chr13:32776882:32776983:+|3pUTR|ENSG00000083642|unk|total|mutant (ssRNA)
# RNA: GGGAGUUCUACAGUCCGACGAUCAAAGUGUUUUGAAUUGUGUCUUAAUCUCUCCAUAUUCAACUAUUCUUCAUUUACAACAACCGUGACACCAGUAAUUAUGAGAGGCUGUCAUAUAUCAAAGCAGCUCAGGUGGGAUCAACACAACAGAGGAUUGAGCAUCA
# B10: chr11:43405833:43405939:+|CDS|ENSG00000052841|unk|total|mutant (ssRNA)
# RNA: GGGAGUUCUACAGUCCGACGAUCGGCCCAAACCCCUGACUGUUCCAUAACUGACUUCAGAAAAAGCCACACUCUGUCCUACUCCGUCAAAGAAUCCGAGGUUCGCAUGGAUCUGAAAGCCAAAAUGCCAGAUGACCAUGCACGCAACAGAGGAUUGAGCAUCA
# B11: chr2:216675988:216676089:-|3pUTR|ENSG00000115461|msi1|total|mutant (ssRNA)
# RNA: GGGAGUUCUACAGUCCGACGAUCACUAAAAUGCAUUCCAUUCCUCUGAAAGCAAAACAAAUUCAUAAUUGAGUGAUAUUAAACCGAGAGGUUUUCGGAAGCAGAUCUGUGAAUAUGAAAUACAUGUGCAUAUUUCAUUCCCCACAACAGAGGAUUGAGCAUCA
# B12: chr7:116918052:116918157:+|3pUTR|ENSG00000198898|unk|FALSE|unique (ssRNA)
# RNA: GGGAGUUCUACAGUCCGACGAUCUUUUCAUUUUGUUUGUUCUAAGAGGAUUGAAAAUCAGUUUAGUUUAAAUGUCUUUCUGUUAGGCCUUUCUUUCUUACAAUGAAGAGAUGAUUCUUCUAGUUUAUGGUUAAAAGUUUUUGACAACAGAGGAUUGAGCAUCA
# B13: chr8:35759345:35759454:+|CDS|ENSG00000156687|unk|total|mutant (ssRNA)
# RNA: GGGAGUUCUACAGUCCGACGAUCCAUCAAGGUGGACAGCUCCUGGAAGAACCAAAAUUGCUGCAUUUCAAAGGGAAUACCUUCCGUCUUCAGAUUUCUGUCCUUGAUAUUCCCCCAUUCCUCUGGAGAAUUAAACCAUUCACUCAACAGAGGAUUGAGCAUCA
# B14: chr10:126015758:126015859:-|3pUTR|ENSG00000148848|msi1|total|mutant (ssRNA)
# RNA: GGGAGUUCUACAGUCCGACGAUCAAAUACUCAGAUAAGGUAAAAUGCCAUGAUGCCUCUGUCUUCUGGACUGGUUUUCACAUCCGAAGACAAUUGACAACAGUUACAUAAUUCACUCUGAGUGUUUUAUGAGAAAGCCUUCUUCAACAGAGGAUUGAGCAUCA
# B15: ENSG00000198589:be:win_5851|CDS|ENSG00000198589|bound_else_gene|NA|bound_elsewhere_windowed (ssRNA)
# RNA: GGGAGUUCUACAGUCCGACGAUCACUCAACUAAUCCAGAAAAUUAUCAACAUUCUCACAGACAAGCAUGGAGCCUGGGGAAAUUCUGCAGUGAGUCGUCCUCUUGAGUUCUGGCGCCUUGACUACUGGGAAGAUGACUUGCGGCAACAGAGGAUUGAGCAUCA
# B16: chr12:79773885:79773986:-|3pUTR|ENSG00000058272|msi1|total|mutant (ssRNA)
# RNA: GGGAGUUCUACAGUCCGACGAUCGGUUAUUUAUUCUUUGUAUCUAAAACUGAACAGCUACUGUGCUAUAUUGAUUUUAUUGGCCGUAUUGAGCAGACCUUGUUUCUGCAUGAAACCCGUUGCAAAACCCACUAUUUUGGAAAUCAACAGAGGAUUGAGCAUCA
# B17: chr12:76029359:76029534:-|3pUTR|ENSG00000139289|msi1|total|mutant (ssRNA)
# RNA: GGGAGUUCUACAGUCCGACGAUCAGAAGUUUAAAAAGCUAAAAGUUAAAAAUGGUGUAAUUAUGAAAAUCUAACACUCAAGACCGUUUCUAAAAGGAAAUCAGCCGUUAAGGAUACCUGAUUUCAAAAUAUUUAAAGCAUAACCAACAGAGGAUUGAGCAUCA
# B18: chr2:27433287:27433389:+|CDS|ENSG00000115216|unk|FALSE|unique (ssRNA)
# RNA: GGGAGUUCUACAGUCCGACGAUCUUCCAGCAUGUCGGAGGGGGAGUCCCAGACAGUACUUAGCAGUGGCUCAGACCCAAAGGUAGAAUCCUCAUCUUCAGCUCCUGGCCUGACAUCAGUGUCACCUCCUGUGACCUCCACAACCAACAGAGGAUUGAGCAUCA
# B19: chr6:142752714:142752806:-|3pUTR|ENSG00000010818|msi1_unk|total|mutant (ssRNA)
# RNA: GGGAGUUCUACAGUCCGACGAUCUUUUCUUUACUUUGCUUAUAUUCUUAUAAGCAUUUUUCCGCAGUAAUUUGUACAUAUUUCCGAAUUUGUGUAUCUGCUUUGUAAUAAAUGUAAUUUCUUUCCUUUUUUGGACACUUGGAUCAACAGAGGAUUGAGCAUCA
# B20: chr8:19954154:19954263:+|CDS|ENSG00000175445|unk|total|mutant (ssRNA)
# RNA: GGGAGUUCUACAGUCCGACGAUCACCUAACUUUGAGUAUGCAGAAGCCCCGAGUCGUCUUUCUCCUGAUGAUGCAGAUUUUGCCGACGUCUUACACACAUUCACCAGAGGGUCCCCUGGUCGAAGCAUUGGAAUCCAGAAACCCAACAGAGGAUUGAGCAUCA
# B21: chr4:75577918:75578020:-|3pUTR|ENSG00000138769|unk|total|mutant (ssRNA)
# RNA: GGGAGUUCUACAGUCCGACGAUCGGUUGUUCCGGGAACCAGAAUUUGUGAGUUUUUUUUUUUUUUUUGCCUUAACUAAUUAACCGUGUGUUGCUUUUUUUCCAAAGCCAUUGACCCGAACUCCGCUGAAGAAUUUAACCCGAACAACAGAGGAUUGAGCAUCA
# B22: chr1:225496770:225496921:-|3pUTR|ENSG00000154380|msi1|total|mutant (ssRNA)
# RNA: GGGAGUUCUACAGUCCGACGAUCUUUUUUAAUUGCAGACAGUAAUGCAUGUCACACUAAUAUGCCGUGGCCUUUUCAAGGCCCCGUCCCAGGGAAAACAUUUUGCCGAGUACCGGGGAGUGGGAGGAAGGGGAGGAAUAAUUUCAACAGAGGAUUGAGCAUCA
# Biological target: T1, UNK ZnF1-6 (called full-length)
# Experiment: nsRBNS (natural sequence RNA bind-n-seq); RBNS binding buffer (assumed for nsRBNS): 25 mM Tris pH 7.5, 150 mM KCl, 3 mM MgCl2, 0.01% Triton X-100, 500 ug/ml BSA, 20 U/ml SUPERase-In, 4 C; UNK is unkempt and MSI1 is Musashi-1; names of the RNAs are library labels; protein concentration not given here; high values mean tight binding
row,Binder,binding signal [enrichment R]
1,B1,0.772
2,B2,8
3,B3,5.03
4,B4,1.62
5,B5,1.84
6,B6,3.86
7,B7,3.14
8,B8,0.86
9,B9,0.995
10,B10,0.444
11,B11,0.351
12,B12,3
13,B13,0.378
14,B14,0.255
15,B15,0.85
16,B16,0.588
17,B17,0.525
18,B18,0.848
19,B19,0.576
20,B20,0.688
21,B21,1.76
22,B22,1.22

# From publication PMC12136788
